According to publication PMC8421406, “C9orf72-derived arginine-rich poly-dipeptides impede phase modifiers” (Nature Communications, 2021):
These are yes or no findings as the source states them, for the method shown. Some entries that bind do so weakly or less than the wild type. Tags and fused reporters may be left off the sequences shown.

The chains behind the UniProt entries cited, without tags or fusion partners.
UniProt Q14974: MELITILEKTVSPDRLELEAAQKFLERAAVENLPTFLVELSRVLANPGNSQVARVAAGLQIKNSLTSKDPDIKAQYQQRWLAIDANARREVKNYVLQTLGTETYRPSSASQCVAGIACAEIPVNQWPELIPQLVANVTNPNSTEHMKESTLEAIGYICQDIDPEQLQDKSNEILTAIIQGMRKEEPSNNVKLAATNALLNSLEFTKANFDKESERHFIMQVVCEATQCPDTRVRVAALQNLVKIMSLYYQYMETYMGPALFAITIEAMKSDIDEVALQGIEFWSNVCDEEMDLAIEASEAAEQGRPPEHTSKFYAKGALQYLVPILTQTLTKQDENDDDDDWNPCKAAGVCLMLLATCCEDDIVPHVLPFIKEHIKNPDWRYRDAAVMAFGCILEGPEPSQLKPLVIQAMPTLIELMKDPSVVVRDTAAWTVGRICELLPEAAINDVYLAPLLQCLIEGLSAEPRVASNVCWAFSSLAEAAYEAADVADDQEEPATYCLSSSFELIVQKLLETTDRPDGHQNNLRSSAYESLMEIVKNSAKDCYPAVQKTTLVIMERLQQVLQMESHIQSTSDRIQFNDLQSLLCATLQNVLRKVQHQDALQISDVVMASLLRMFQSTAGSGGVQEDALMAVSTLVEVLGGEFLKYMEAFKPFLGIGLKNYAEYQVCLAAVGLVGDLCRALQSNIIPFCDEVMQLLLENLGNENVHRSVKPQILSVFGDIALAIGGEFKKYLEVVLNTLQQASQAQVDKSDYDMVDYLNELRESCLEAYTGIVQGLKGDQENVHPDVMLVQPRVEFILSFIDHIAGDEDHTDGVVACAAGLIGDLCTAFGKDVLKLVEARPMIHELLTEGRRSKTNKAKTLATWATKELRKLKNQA
UniProt Q92973: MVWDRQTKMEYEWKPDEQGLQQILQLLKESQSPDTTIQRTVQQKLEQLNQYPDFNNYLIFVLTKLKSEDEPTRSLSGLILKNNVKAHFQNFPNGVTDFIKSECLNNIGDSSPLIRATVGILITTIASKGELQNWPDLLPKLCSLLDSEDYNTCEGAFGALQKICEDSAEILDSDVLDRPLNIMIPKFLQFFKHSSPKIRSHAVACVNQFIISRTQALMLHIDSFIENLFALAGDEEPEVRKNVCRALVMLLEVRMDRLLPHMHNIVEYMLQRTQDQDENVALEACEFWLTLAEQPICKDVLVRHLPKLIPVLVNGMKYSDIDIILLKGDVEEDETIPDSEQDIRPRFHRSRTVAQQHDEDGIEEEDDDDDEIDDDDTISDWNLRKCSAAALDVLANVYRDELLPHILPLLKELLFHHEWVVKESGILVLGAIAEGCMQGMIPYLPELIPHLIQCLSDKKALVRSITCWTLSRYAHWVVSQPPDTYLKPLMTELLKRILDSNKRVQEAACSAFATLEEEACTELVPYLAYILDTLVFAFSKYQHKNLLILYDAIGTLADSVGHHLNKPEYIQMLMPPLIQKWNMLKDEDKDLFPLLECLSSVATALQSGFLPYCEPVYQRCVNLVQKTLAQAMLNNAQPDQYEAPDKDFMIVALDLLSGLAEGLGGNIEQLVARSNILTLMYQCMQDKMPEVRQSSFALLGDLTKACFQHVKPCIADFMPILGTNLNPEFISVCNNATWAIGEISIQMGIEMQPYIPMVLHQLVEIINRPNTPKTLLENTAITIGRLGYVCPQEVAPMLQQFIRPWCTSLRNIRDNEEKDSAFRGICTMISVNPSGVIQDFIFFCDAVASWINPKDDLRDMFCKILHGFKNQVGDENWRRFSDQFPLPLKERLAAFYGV

Key:
GST:Importinβ1 [1] = molecular target: GST:Importinβ1 (UniProt Q14974); assay: pull-down; 4 µg GST protein immobilized on 30 µL GSH sepharose beads, incubated with equal molar protein 20–30 min, washed three times; 20 mM HEPES pH 7.4, 150 mM NaCl, 10% glycerol, 2 mM Mg(OAc)2, 2 mM DTT; SDS-PAGE, Coomassie; both purified
karyopherin-β2 (Kapβ2) [2] = molecular target: karyopherin-β2 (Kapβ2) (UniProt Q92973); assay: AUC; sedimentation velocity, 28 µM Kapβ2 + 28 µM MBP:PR18 and each alone; 20 mM HEPES pH 7.4, 150 mM NaCl, 2 mM MgCl2, 2 mM DTT, 10% glycerol; 25 °C; interference optics; both purified
karyopherin-β2 (Kapβ2) [3] = molecular target: karyopherin-β2 (Kapβ2) (UniProt Q92973); assay: NMR titration; 1H-13C methyl HMQC of 20 μM isotopically labeled Kapβ2 in the absence and presence of PR20:HA; 20 °C; 20 mM 2H-Tris pH 7.4, 150 mM NaCl, 2 mM MgCl2, 2 mM DTT, 2% glycerol; both purified
karyopherin-β2 (Kapβ2) [4] = molecular target: karyopherin-β2 (Kapβ2) (UniProt Q92973); assay: NMR titration; 1H-13C methyl HMQC of 20 µM isotopically labeled Kapβ2 (free or in complex with M9M) in the absence and presence of the ligand; 20 mM 2H-Tris pH 7.4, 150 mM NaCl, 2 mM MgCl2, 2 mM DTT, 2% glycerol; 20 °C; both purified
GST:Kapβ2 [5] = molecular target: GST:Kapβ2 (UniProt Q92973); assay: pull-down; competitive binding assay: GST:Kapβ2 immobilized on GSH beads, incubated with equal molar MBP:FUS-NLS ± PR20:HA for 20–30 min, washed three times; bound and unbound proteins on SDS-PAGE, Coomassie; both purified
karyopherin-β2 (Kapβ2) [6] = molecular target: karyopherin-β2 (Kapβ2) (UniProt Q92973); assay: AUC; sedimentation velocity, Rayleigh-interference optics, 25 °C; 28 µM Kapβ2, 28 µM MBP:PR18 and their mixture; 20 mM HEPES pH 7.4, 150 mM NaCl, 2 mM MgCl2, 2 mM DTT, 10% glycerol; both purified
GST:Kapβ2 [7] = molecular target: GST:Kapβ2 (UniProt Q92973); assay: pull-down; 4 μg GST protein immobilized on 30 μL GSH sepharose beads, incubated with equal molar protein for 20–30 min, washed three times; 20 mM HEPES pH 7.4, 150 mM NaCl, 10% glycerol, 2 mM Mg(OAc)2, 2 mM DTT; SDS-PAGE, Coomassie; both purified
GST:Importinβ1 [8] = molecular target: GST:Importinβ1 (UniProt Q14974); assay: as above

B1: MBP:PR18 (maltose-binding protein fused to 18 repeats of Pro-Arg) (peptide)
chain: PRPRPRPRPRPRPRPRPRPRPRPRPRPRPRPRPRPR
In the case of B1, the binding (GST:Importinβ1 [1]) is reported as “binds” and the binding (karyopherin-β2 (Kapβ2) [2]) is reported as “binds”.

B2: PR20:HA (twenty repeats of PR with an HA epitope tag at the C terminus) (peptide)
peptide: PRPRPRPRPRPRPRPRPRPRPRPRPRPRPRPRPRPRPRPR
B2 was tested, and the binding (karyopherin-β2 (Kapβ2) [3]) was “binds”, the binding (karyopherin-β2 (Kapβ2) [4]) was “binds” and the binding (GST:Kapβ2 [5]) was “binds”.

B3: MBP:PR18 (18 repeats of Pro-Arg) (peptide)
chain: B1 chain
For B3, the binding (karyopherin-β2 (Kapβ2) [6]) was “binds”, the binding (GST:Kapβ2 [7]) was “binds” and the binding (GST:Importinβ1 [8]) was “binds”.

B4: MBP:PR8 (8 repeats of Pro-Arg) (peptide)
chain: PRPRPRPRPRPRPRPR
For B4, the binding (GST:Kapβ2 [7]) was “no binding”.
